Results as given in the supplement of paper PMC12217912.
The other results are listed elsewhere or left out. Sequences were assembled here from the parent chain. Inactive controls read about 0.05.

B1: TEV protease; numbered along this chain (parent)
chain: MGESLFKGPRDYNPISSSICHLTNESDGHTTSLYGIGFGPFIITNKHLFRRNNGTLVVQSLHGVFKVKDTTTLQQHLVDGRDMIIIRMPKDFPPFPQKLKFREPQREERICLVTTNFQTKSMSSMVSDTSCTFPSGDGIFWKHWIQTKDGQCGSPLVSTRDGFIVGIHSASNFTNTNNYFTSVPKNFMELLTNQEAQQWVSGWRLNADSVLWGGHKVFMVKPEEPFQPVKEATQL

Variants of: B1
Test: raw area under fraction-flipped curve 0-4 h after induction (AUC4h, not background-subtracted), DNA-recorder readout of cleavage of the substrate (dimensionless); higher = more cleavage of the substrate by the protease variant
Conditions: temperature: 34 °C; time window: 0-4 h after rhamnose induction
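Note: Bxb1 expression induced with 0.2% (w/v) L-rhamnose at OD600 near 0.5, cultures sampled hourly, flipped fraction per protease–substrate barcode pair counted by paired-end Illumina sequencing.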

Variant | area with substrate ENCYFQS | area with substrate ENDYFQS | area with substrate ENEYFQS | area with substrate ENHYFQS | area with substrate ENIYFQS | area with substrate ENKYFQS | area with substrate ENNYFQS | area with substrate ENQYFQS | area with substrate ENVYFQS | area with substrate ENWYFQS | area with substrate ENAYFQS | area with substrate ENFYFQS | area with substrate ENMYFQS | area with substrate ENPYFQS | area with substrate ENRYFQS | area with substrate ENSYFQS | area with substrate ENGYFQS | area with substrate ENTYFQS | area with substrate ENYYFQS
I19A | 0.0681 | 0.0366 | 0.0589 | 0.047 | 0.0774 | 0.0581 | 0.0481 | 0.0605 | 0.046 | 0.0554 | – | – | – | – | – | – | – | – | –
K230Y | 0.0584 | – | – | – | – | 0.0767 | 0.0618 | 0.0567 | 0.0763 | – | 0.0467 | 0.0527 | 0.068 | 0.0699 | 0.0538 | 0.0536 | – | – | –
K230Q | 0.0758 | 0.0666 | – | – | – | – | – | 0.0648 | 0.0665 | 0.0011 | 0.0813 | 0.0723 | 0.0767 | – | 0.073 | 0.0669 | 0.0497 | 0.0532 | 0.0899
L211A | – | 0.0626 | 0.0627 | – | – | – | 0.0494 | 0.0601 | – | – | 0.0481 | – | 0.0494 | – | – | – | 0.0572 | – | –
L211W | – | – | 0.0574 | – | 0.0998 | – | 0.0704 | – | – | 0.0269 | 0.0564 | 0.057 | – | – | 0.0754 | – | – | – | –
E3L | 0.0606 | 0.0642 | 0.0661 | – | – | 0.0679 | 0.0693 | 0.0497 | – | – | – | 0.0331 | – | 0.0734 | 0.0783 | 0.0944 | – | 0.069 | –
E224G | – | 0.0635 | 0.0779 | 0.064 | 0.0965 | 0.06 | 0.0657 | 0.0844 | 0.0969 | – | 0.0402 | 0.0455 | – | – | – | – | – | 0.0632 | –
P225M | 0.083 | 0.0594 | 0.0178 | 0.0454 | 0.104 | – | 0.0618 | – | 0.0685 | – | 0.0619 | – | 0.0905 | 0.0646 | 0.0662 | 0.0646 | 0.0669 | 0.0625 | –
P225N | 0.0645 | 0.0566 | 0.0663 | 0.0605 | 0.133 | 0.0495 | – | 0.071 | – | 0.0649 | 0.0718 | 0.0523 | 0.0432 | 0.0511 | 0.0583 | 0.0518 | 0.0596 | 0.0711 | 0.0514
P225E | 0.0569 | – | 0.054 | – | – | 0.0521 | – | 0.0551 | 0.108 | – | 0.0535 | 0.0606 | – | 0.0638 | 0.0506 | 0.0714 | – | 0.0592 | –
P225H | – | 0.0721 | 0.0603 | 0.0392 | 0.0932 | 0.0489 | 0.0607 | 0.0513 | – | – | 0.0769 | – | 0.0664 | – | – | 0.0641 | 0.06 | – | 0.089
P225G | 0.062 | 0.0604 | 0.0698 | – | – | 0.0628 | – | 0.0692 | 0.0777 | 0.0701 | 0.0833 | 0.0632 | 0.0839 | – | – | 0.0745 | 0.0733 | – | 0.0559
D208P | – | 0.0663 | 0.0689 | 0.0638 | – | 0.0898 | 0.0598 | 0.0598 | – | – | 0.0419 | 0.0687 | 0.0301 | – | – | 0.061 | 0.0615 | – | –
H215P | 0.0608 | 0.0701 | – | 0.0549 | 0.0582 | 0.0494 | 0.033 | 0.0514 | 0.0551 | – | 0.0522 | 0.0494 | 0.0352 | – | 0.0344 | 0.0641 | 0.0588 | 0.0035 | 0.0666
V217Y | 0.0564 | 0.0463 | 0.0574 | 0.0546 | – | – | 0.0582 | 0.048 | 0.0587 | 0.0491 | 0.0472 | – | – | – | 0.0656 | 0.0607 | 0.0524 | – | 0.0413
V217F | – | 0.0622 | – | 0.0347 | – | 0.0649 | 0.069 | – | 0.0614 | – | 0.0376 | – | – | – | 0.0638 | – | – | – | –
V217S | 0.0517 | 0.0538 | – | 0.0598 | 0.0736 | 0.0521 | – | 0.0592 | – | 0.0591 | 0.061 | 0.0586 | 0.0707 | 0.0442 | – | 0.0521 | – | 0.0679 | 0.0219
V217T | – | – | 0.0607 | 0.0594 | 0.076 | 0.0703 | 0.0823 | 0.0576 | 0.0421 | – | 0.0554 | 0.0627 | – | 0.0636 | – | 0.0488 | – | 0.0502 | 0.0644
V217K | 0.0383 | 0.0659 | 0.0524 | – | 0.0531 | – | – | – | 0.0539 | – | 0.0516 | 0.0639 | – | – | – | – | 0.0531 | 0.0592 | 0.054
V229A | 0.0651 | – | 0.0561 | – | – | 0.0604 | – | 0.0657 | – | – | 0.0682 | – | – | – | 0.0645 | 0.055 | – | – | –
V229S | 0.07 | – | – | – | 0.109 | – | – | 0.0693 | 0.0871 | – | 0.0975 | – | – | 0.0541 | – | – | 0.0748 | 0.064 | –
Q227C | – | 0.0554 | 0.0618 | – | 0.113 | – | – | 0.0601 | 0.0717 | – | 0.0481 | 0.0633 | 0.0815 | 0.0709 | 0.0601 | 0.0492 | 0.038 | 0.054 | –
G213V | 0.0651 | – | 0.0506 | – | – | 0.0598 | – | 0.0484 | 0.0636 | – | 0.0602 | – | – | – | – | – | – | 0.0675 | –
T23D | 0.0467 | 0.0518 | 0.0526 | 0.0611 | – | 0.0569 | 0.0502 | 0.0502 | 0.0723 | 0.0309 | – | 0.0649 | – | 0.0626 | 0.0475 | – | 0.0624 | 0.05 | 0.0542
W212P | – | – | 0.0555 | – | – | – | 0.06 | – | – | – | 0.0809 | 0.0576 | – | – | – | 0.0623 | 0.0615 | 0.0431 | 0.0607
W212L | 0.0673 | 0.0597 | 0.0664 | 0.0427 | 0.107 | 0.0384 | 0.0719 | 0.0636 | 0.0794 | 0.0769 | 0.0625 | 0.0595 | – | – | 0.0612 | 0.0577 | 0.0538 | 0.0914 | 0.074
W212R | 0.0558 | 0.0661 | 0.0567 | 0.0758 | – | 0.0626 | 0.0534 | 0.0595 | 0.0512 | – | 0.0545 | 0.0595 | 0.0426 | 0.0602 | 0.0557 | 0.0649 | – | – | –
W212C | – | – | – | 0.0949 | 0.11 | – | – | 0.0648 | 0.0635 | – | 0.0643 | 0.0615 | 0.056 | – | 0.0565 | 0.0595 | 0.0667 | 0.0773 | 0.0556
G37Y | 0.0521 | 0.0474 | 0.051 | 0.0478 | 0.0722 | – | 0.0466 | – | – | – | – | 0.0735 | – | – | 0.0592 | 0.0595 | 0.0524 | – | 0.0555
